Experimental findings from PubChem BioAssay (NCI) are described below.

This assay relates to NCI-H322M lung. The assay is described as follows: DTP human tumour cell line panel, 48 h.

By TGI is commonly meant the concentration at which net growth stops. Read a high TGI as lower sensitivity of the cells. Usually GI50 stands for the concentration giving 50% growth inhibition.

“And” between values parts separate entries of the source, which are not always exact repeats. Identical values can stand only once.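 In this assay, cells in 96-well plates receive the compound at five concentrations for 48 hours. Endpoints are linearly interpolated between the surrounding concentrations. At the GI50, growth is halved. TGI: total growth inhibition.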 Where only a bound is given, the exact number is not on record here.

`COc1ccc(-c2cc(-c3ccccc3)n(C3OCC(OC(C)=O)C(OC(C)=O)C3OC(C)=O)c(=S)c2C#N)cc1` (stereo not given): the TGI is greater than 100 µM.
In turn, `O=C(O)c1nc2cc(C(F)(F)F)ccc2nc1Nc1ccc(Cl)c(Cl)c1` registered a TGI of 63.8 µM.
Same read-out and setting: in the case of `COc1ccc(-c2cnoc2-c2ccc(OC)c(OC)c2)cc1OC` it was greater than 29.8 µM.
On the same count and under the same terms, the same measure for `CCOC(=O)c1cc(/C=C/C(C)=C/C(=O)OC)oc1-c1ccccc1`: greater than 100 µM; for `CCNC(C)(C)C(SS)c1ccc(Br)cc1` (stereo not given): greater than 100 µM.
With `COc1ccc(C[n+]2c3ccccc3n3c4ccc(N)cc4ccc32)c(OC)c1OC`, the GI50 is 14.1 µM and the TGI is 90.4 µM.
The corresponding values for `COc1cc(-c2nn(-c3ccc(NC(=O)Nc4ccc(Cl)c(Cl)c4)cc3)cc2-c2ccncc2)ccc1Cl` are 6 µM and 81.5 µM.
`COc1ccc(N)c(C(O)CCNC(C)=O)c1` (stereo not given) had a TGI greater than 100 µM.
Still for that read-out and setting: the same measure for `COc1ccc(NS(=O)c2ccc(-c3ccccc3)cc2)cc1` (stereo not given): greater than 100 µM.
Regarding `Cc1ccc(S(=O)(=O)OC[C@]23CCC(C)(C)C[C@H]2C2=CC[C@@H]4[C@@]5(C)CCCNC(C)(C)[C@@H]5CC[C@@]4(C)[C@]2(C)CC3)cc1`, the GI50 is 14.9 µM and the TGI came out at 40.5 µM.
The corresponding values for `O=C(/C=C1\C(=O)N(Cc2ccc([N+](=O)[O-])cc2)c2ccccc21)c1ccc(OCCN2CCCCC2)cc1` are 5.5 µM and 20 µM.
`O=C(CC(=O)C(=O)Nc1ccccc1)CC(c1ccccc1)c1c(O)c2ccccc2oc1=O` (stereo not given): the TGI was greater than 100 µM.
On the same count and under the same terms, the same measure for `CN(C)/C(N)=N/C(N)=Nc1cccc(Cl)c1`: greater than 100 µM.
Same read-out and setting: the same measure for `COC(=O)CCC1(C)C2CCC1(C)/C(=N/O)C2` (stereo not given): greater than 100 µM.
Same read-out and setting: the same measure for `Nc1ccc2c(c1)C1=NNC(=O)CC1C2` (stereo not given): greater than 100 µM.
The molecule `CCC(C)C(C(=O)N/N=C1/SCC(=O)N1C)C(=O)N/N=C1/SCC(=O)N1C` (stereo not given) gave a total growth inhibition concentration (TGI) greater than 100 µM.
On the same count and under the same terms, in the case of `O=C1NCN(c2ccccc2)C12CCN(CCc1ccc3[nH]c(=S)[nH]c3c1)CC2` it was greater than 100 µM; in that of `CCCCCCCC(=O)OC[n+]1ccc(-c2c(COC(=O)NC(C)C)c(COC(=O)NC(C)C)c3n2CCC3)cc1`, greater than 100 µM; in that of `Nc1nc(N)c(C2=CCN(Cc3ccccc3)CC2)c(=O)[nH]1`, greater than 100 µM.
Turning to `O=S(=O)(Nc1cc(Br)c(O)c2ccccc12)c1ccc(F)cc1`, the GI50 was 17.3 µM and the TGI worked out at 31.5 µM.
Consider `COc1ccc(C2=Nc3ccccc3SC(C)C2)cc1` (stereo not given), for which the TGI is greater than 100 µM.
Still for that read-out and setting: in the case of `N=CCCN(CCC=N)c1ccc(/C=C2\CN(NC(=O)c3ccc(Cl)cc3)C(c3ccccc3)=N2)cc1` it was greater than 100 µM; in that of `C[n+]1noc(/N=N\[O-])c1-c1cc(-c2c(/N=N\[O-])on[n+]2C)cc(-c2c(/N=N/[O-])on[n+]2C)c1`, greater than 100 µM; in that of `COC(=O)[C@H]1[C@H]2C[C@@H]3c4[nH]c5cc(OC)ccc5c4CCN3C[C@H]2C[C@@H](OC(=O)c2cc(OC)c(OC)c(OC)c2)[C@@H]1OC`, 46.7 µM.
On the same count and under the same terms, the same measure for `NCC[Se][Se]CCN`: 13.7 µM.
`CCCCN(CCCC)c1ccc(C(=N)c2ccc(N(C)C)cc2)cc1`: the GI50 was 1.05 µM and the total growth inhibition concentration (TGI) was determined as 2.48 µM.
Molecule `C#CCn1c(=O)ccn(/C(=C\C(=O)OCC)C(=O)OCC)c1=O` yielded a TGI of 36 µM.
On the same count and under the same terms, in the case of `CC(C)N(C(=O)C12C3C4C5C3C1(C(=O)N(C(C)C)C(C)C)C5(C#N)C42)C(C)C` (stereo not given) it was greater than 100 µM; in that of `CC1SC(c2ccccc2)N(Nc2c3ccccc3nc3ccccc23)C1=O` (stereo not given), greater than 100 µM.
Consider `O=C(COc1ccc(/C=C2\Oc3ccccc3C2=O)cc1)Nc1nccs1`, for which the GI50 was greater than 100 µM and the TGI is greater than 100 µM.
`CC1(C)CC(=O)/C(=C/C2CCNC2=S)C(=O)N1` (stereo not given) came in with a TGI greater than 100 µM.
The same measure, in the same setting: the same measure for `CC1(c2cccc3c2C2(O)C=CC4(CCC32)OCCO4)OCCO1` (stereo not given): greater than 100 µM; for `C=C(C)[C@@H]1C[C@H]2O[C@](O)(C(=C)CC(=O)/C=C(/C)C[C@@H]3OC(=O)[C@]24O[C@@H]34)[C@H]1O`: greater than 100 µM.
Same read-out and setting: in the case of `CC(NC(=O)C(OC(=O)C(C)NC(=O)OC(C)(C)C)C(C)C)C(=O)OC(C(=O)O)C(C)C` (stereo not given) it was greater than 100 µM; in that of `COc1ccc(N(C)CN(C)c2nc(N(C)C)nc(N(C)C)n2)cc1`, greater than 100 µM.
The same measure, in the same setting: the same measure for `O=[N+]([O-])c1ccc(N=Nc2c(O)ccc3cc(S(=O)(=O)O)ccc23)cc1`: greater than 100 µM.
Consider `CCC1=C(C)/C(=C/c2[nH]c(C(Br)Br)c(CC)c2C)N=C1C(Br)Br`, for which the total growth inhibition concentration (TGI) was greater than 100 µM.
Same read-out and setting: in the case of `Cn1c(NN)nc(-c2ccc([N+](=O)[O-])cc2)c(C#N)c1=O` it was 27.3 µM; in that of `C=C(C)[C@@H]1CC[C@]2(C)CC[C@]3(C)[C@H](CC[C@@H]4[C@@]5(C)CC[C@H](OC(=O)c6ccccc6)C(C)(C)[C@@H]5CC[C@]43C)[C@@H]12`, greater than 100 µM.
Still for that read-out and setting: in the case of `Cc1nc(Cl)c(Cl)c(Cl)n1` it was 2.26 µM; in that of `COc1ccc(-c2cc(-c3ccc(Cl)cc3)n(C3OC(CO)C(O)C(O)C3O)c(=S)c2C#N)cc1` (stereo not given), greater than 100 µM; in that of `CC(CN(C)C)C(=O)c1ccccc1C(=O)O` (stereo not given), greater than 100 µM.
On the same count and under the same terms, the same measure for `O=c1[nH]c(=O)n(C2CC(O)C(CO)O2)cc1OCCc1ccccc1` (stereo not given): greater than 100 µM; for `COC(=O)c1ccc(Oc2nc3ccccc3nc2-c2cccs2)cc1`: greater than 100 µM.
Take `COC(=O)C1=C(OC(=O)/C(=C/c2ccc(Cl)cc2Cl)c2ccc(Cl)cc2Cl)C(C(=O)OC)[C@@]2(O)[C@@H](C(=O)OC)[C@H](C)C[C@@H]1[C@@H]2C(=O)OC` (stereo not given in full): the TGI is greater than 100 µM.
On the same count and under the same terms, in the case of `CC(C)(C)N/N=C(\Cc1occc(=O)c1O)C(=O)Nc1ccc([N+](=O)[O-])cc1[N+](=O)[O-]` it was greater than 100 µM.
As to `[C-]#[O+].[Cl][Sn]([Cl])[Cl].[Cl][Sn]([Cl])[Cl].[Pt].c1ccc([PH+](c2ccccc2)c2ccccc2)cc1.c1ccc([PH+](c2ccccc2)c2ccccc2)cc1`, the GI50 was 36.5 µM and the TGI is 90.1 µM.
On to `OC(CC(CC(O)(C(F)(F)Cl)C(F)(F)Cl)=NNc1ccccc1)(C(F)(F)Cl)C(F)(F)Cl`, for which the TGI was greater than 10 µM.
Same read-out and setting: the same measure for `CC1CC(=O)Nc2cc(Cl)ccc2N1C(=O)C1CC1` (stereo not given): greater than 100 µM.
In the case of `CCOC(=O)C1=C(C)NC2SC(=O)/C(=C\c3ccccc3Cl)N2C1c1ccccc1` (stereo not given), the GI50 was greater than 100 µM and the concentration for total growth inhibition (TGI) was greater than 100 µM.
Molecule `O=C(O)CN=C(C(=NCC(=O)O)c1ccccc1)c1ccccc1` had a TGI greater than 100 µM.
In the case of `N=C(N)C1CN(CCc2cnc[nH]2)C(=O)NC1=O` (stereo not given), the TGI was greater than 100 µM.
As to `[N-]=[N+]=Nc1ccc(CCN2CCN(c3cccc(C(F)(F)F)c3)CC2)cc1I`, the TGI is greater than 100 µM.
As to `COc1cc(/C=N/Nc2ncnc3c2cnn3C(C)C)ccc1O`, the GI50 was 12.3 µM and the TGI is greater than 25 µM.
`Oc1[nH]c2ccccc2c1N=NC(=S)N1CCCCC1` registered a total growth inhibition concentration (TGI) of 2.88 µM.
`COC(=O)/C=C/c1cnc2c(c1)oc(=O)n2CCc1ccccn1` came in with a concentration for total growth inhibition (TGI) greater than 100 µM.
Take `CN(Cc1cnc(N)nc1N)c1ccc(C(=O)O)cc1`: the GI50 is greater than 100 µM and the TGI is greater than 100 µM.
Take `NC1=NC(c2ccc(Cl)cc2)N(c2ccc(S(=O)(=O)Nc3ncccn3)cc2)C(N)=N1` (stereo not given): the TGI was greater than 100 µM.
The same measure, in the same setting: the same measure for `COc1ccc(OC)c([N+](=O)[O-])c1-c1nc2sccn2c1/C=N/N=C(N)N`: greater than 100 µM.
Same read-out and setting: the same measure for `Oc1ccc(Cl)cc1-c1[nH]c(=S)nc(-c2ccccc2)c1Cl`: greater than 100 µM; for `COc1cc(C2S/C(=C/c3ccccc3)C(=O)N2c2cc(Cl)ccc2Cl)cc(OC)c1OC` (stereo not given): greater than 100 µM; for `O=C(O)c1c[nH]c2c(=O)[nH]cnc12`: greater than 100 µM.
As for `CC(C)(C)[Si](C)(C)OCC1CCC(n2cnc3c(=O)[nH]cnc32)O1` (stereo not given), the TGI is greater than 100 µM.
Still for that read-out and setting: the same measure for `O=C(Cc1nc2ccccc2c(=O)n1-c1c(Cl)cccc1Cl)c1ccncc1`: 81.4 µM; for `CCOc1cc(-c2nc3ccccn3c2/N=C/c2cc([N+](=O)[O-])cc([N+](=O)[O-])c2O)ccc1O`: greater than 100 µM.
Consider `O=[N+]([O-])c1cc([N+](=O)[O-])c(Cl)c(Cl)c1Cl`, for which the GI50 was 12.4 µM and the total growth inhibition concentration (TGI) was determined as 25.9 µM.
The molecule `O=C(CC(=O)c1ccc([N+](=O)[O-])cc1)C(=O)Nc1nccs1` displayed a TGI greater than 100 µM.
`Cc1cc(Cc2cc(C)c(O)c(C)c2)cc(C)c1O`: the GI50 is 12.1 µM and the TGI is 85.6 µM.
Take `CO[C@H]1[C@@H](O)[C@@H](C)O[C@@H](O[C@H]2CC[C@@]3(C)[C@H](CC[C@@H]4[C@@H]3CC[C@]3(C)[C@@H](C5=CC(=O)OC5)CC[C@]43O)C2)[C@@H]1O`: the TGI came to 0.0597 µM.
Still for that read-out and setting: in the case of `O=c1[nH][nH]c(=O)[nH]1` it was greater than 100 µM; in that of `c1cc(-c2csc(-c3ccsc3)c2)cs1`, greater than 100 µM; in that of `CC1=C(C)C(=O)C2=C(OCCCO2)C1=O`, greater than 100 µM.
The same measure, in the same setting: the same measure for `CCN(CC)c1ccc2c(c1)OC(=O)C(c1nnc(-c3ccc([N+](=O)[O-])cc3)o1)C2` (stereo not given): greater than 100 µM; for `COc1cc(=O)oc(/C=C/C=O)c1C`: greater than 100 µM; for `CC1(C)C(c2ccccc2)C12CCC1(C2=O)C(c2ccccc2)C1(C)C` (stereo not given): greater than 100 µM.
In the case of `O=c1[nH]c(=O)n(C2CC(O)C(CO)O2)cc1NN=NCCc1ccccc1` (stereo not given), the total growth inhibition concentration (TGI) is greater than 100 µM.
Regarding `COC1C(O)C(C)OC(OC2C(Oc3cccc4c(O)c5c(=O)oc6ccc(C)c7c(=O)oc(c34)c5c67)OC(C)C3O[C@H](c4ccccc4)OC32)C1O` (stereo not given in full), the TGI was determined as 8.04 µM.
The same measure, in the same setting: in the case of `Cc1c(C(=O)CC(=O)C(=O)Nc2c(C(C)C)cccc2C(C)C)[n+](=O)c2ccccc2n1[O-]` it was 26.9 µM.
`CC[C@@]1(OC(=O)CN)C(=O)OCc2c1cc1n(c2=O)Cc2cc3cc4c(cc3nc2-1)OCO4`: the GI50 is 0.0103 µM and the TGI came to 0.746 µM.
In the case of `COc1cc(NS(C)(=O)=O)ccc1Nc1c2ccccc2nc2c(C)cccc12`, the GI50 was 3.76 µM and 3.2 µM; the TGI is 18.8 µM and 17.3 µM.
`CO[C@H]1O[C@@H]2CO[C@@H](c3ccccc3)O[C@H]2[C@@H]2CC=CCC[C@]12O` showed a TGI greater than 100 µM.
Still for that read-out and setting: the same measure for `N#CC(c1ccc(Cl)cc1)c1c(O)nc2ccc(=N)cc-2n1O` (stereo not given): greater than 100 µM; for `COc1c(C2=NC(C(C)C)CO2)ccc2ccccc12` (stereo not given): greater than 100 µM.
In the case of `Cc1cc(N2CCN(C)CC2)nc(NCc2cc(Nc3ccnc4cc(Cl)ccc34)ccc2F)n1`, the GI50 was 2.07 µM and the TGI was 8.49 µM.
